Laboratory results reported in US20260216242A1 (ALMAC DISCOVERY, published 2026).

B1: E06-hFc (S239C) (Fc fusion)
chain: QVHLVESGGGLVQAGGSLRLSCAASRRSFSEYAMGWFRQAPGKEREFVAAIGWSGVIEYADSVKGRFTISRDNAKDTVYLQMNSLKPEDTAVYYCAAGLGIRVVSQTPAYWGQGTQVTVSSGGGGSGGGGSGGGGS[human IgG1 Fc with changes not spelt out]
notes: [G4S]3 linker
B2: E10-hFc (S239C) (Fc fusion)
chain: QVQLVESGGGLVQAGGSLRLSCAVSGRALSDYNIGWFRQAPGKEREFVARKTWDGSSTRYDDSVKGRFTVSIEDAKNTAYLQMSSLKTEDTAVYYCAAGRYSRARGWEYDYWGQGTQVTVSSGGGGSGGGGSGGGGS[human IgG1 Fc with changes not spelt out]
notes: [G4S]3 linker; also called #435
B3: F05-hFc (S239C) (Fc fusion)
chain: QVQLVESGGGLVQAGGSLRLSCAASGRAFGDYNIGWFRQAPGKEREFVARRTWDGSSTRYDDSVKGRFTVSIDNAKNTAYLQMNSLKTEDTAVYYCAAGRYSRVRGWEYDYWGQGTQVTVSSGGGGSGGGGSGGGGS[human IgG1 Fc with changes not spelt out]
notes: [G4S]3 linker; also called #436
B4: A06-hFc (S239C) (Fc fusion)
chain: QVHLVESGGGLVQAGGSLRLSCAASGRTFLSMGWFRQAPGKEREFVAAISWTGGSTGYADSVKGRFTISRESDKETMYLQMNSLKPEDTAVYYCAARGDVYYGGDDATRYKYWGQGTQVTVSSGGGGSGGGGSGGGGS[human IgG1 Fc with changes not spelt out]
notes: [G4S]3 linker; also called #340
B5: B01-hFc (S239C) (Fc fusion)
chain: QVQLVESGGGLVQAGGSLRLSCEVTRSPMPIDTMAWYRQAPGRQRELVAIISRSGSTNYADSVKGRFTISRNDTKSTMYKSTMYLKMNTLELEDTGVYYCNAVGLWNGAEYWGQGTQVTVSSGGGGSGGGGSGGGGS[human IgG1 Fc with changes not spelt out]
notes: Built from parts; also called #341
B6: D10-hFc (S239C) (Fc fusion)
chain: QVQLVESGGGLVQPGGSLRLSCAASGSIFSVNTMGWYRQAPGKQRDLVAVATSGGTIHYADSVKGRFTISRDNAKNTVYLQMNSLKPEDTAVYYCNLVVPYGMIAGDHDYWGQGTKVTVSSGGGGSGGGGSGGGGS[human IgG1 Fc with changes not spelt out]
notes: [G4S]3 linker
B7: C07-hFc (S239C) (Fc fusion)
chain: QVQLVESGGGLVQAGESLRLACAASGTIFSGNAVGWYRQAPEKQREWVSSITDYGDTDYAEAVKGRFTISRDNAKNTVYLQMNSLKPEDTAVYYCYVYQRGESEEYWGQGTQVTVSSGGGGSGGGGSGGGGS[human IgG1 Fc with changes not spelt out]
notes: Built from parts
B8: D04-hFc (S239C) (Fc fusion)
chain: QVQLVESGGGLVQPGGSLRLSCAASESTFSINVMGWYRQAPGKQRELVATITSGDITNYADSVKGRFTISRDNAENTVYLRTNSLKPEDTAVYYCNARGEYHSGNEYDYWGQGTQVTVSSGGGGSGGGGSGGGGS[human IgG1 Fc with changes not spelt out]
notes: Built from parts; also called #371

Tests used:
[1] = molecular target: T1, Rhesus monkey ALPP (leucine zipper) (rhesus monkey); assay: BLI, antigen immobilised, KD apparent
T1 construct: Whole entry: cysteine-stabilised leucine zipper fusion; also called rmALPP; NCBI #XP_028687061
T1 chain: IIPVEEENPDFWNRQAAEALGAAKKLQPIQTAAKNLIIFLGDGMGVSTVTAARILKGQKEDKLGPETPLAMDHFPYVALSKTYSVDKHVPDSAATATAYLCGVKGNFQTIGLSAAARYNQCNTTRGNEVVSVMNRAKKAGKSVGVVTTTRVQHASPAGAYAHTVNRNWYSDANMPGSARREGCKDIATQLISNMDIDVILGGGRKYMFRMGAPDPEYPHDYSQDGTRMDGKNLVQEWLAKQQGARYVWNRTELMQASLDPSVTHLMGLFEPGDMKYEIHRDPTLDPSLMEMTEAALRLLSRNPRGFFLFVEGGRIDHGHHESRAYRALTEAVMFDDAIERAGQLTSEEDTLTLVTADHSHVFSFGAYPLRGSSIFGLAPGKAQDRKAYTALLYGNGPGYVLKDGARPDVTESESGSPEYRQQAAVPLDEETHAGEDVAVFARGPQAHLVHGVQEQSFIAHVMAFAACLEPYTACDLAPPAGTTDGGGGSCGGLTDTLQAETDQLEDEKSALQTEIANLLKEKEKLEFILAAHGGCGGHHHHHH
Procedure: (§1) Binding kinetics were determined using the Biolayer Interferometry (BLI) Octet K2 or R4 system (Sartorius). […] For KD apparent measurements, the ALPP proteins were immobilised in sodium acetate pH5 buffer to AR2G sensors using amine coupling. To measure 1:1 interactions, AHC biosensors were used to immobilise Fc-fused proteins. All assays were conducted in HBS-EP with a plate temperature of 25° C. Ka (M⁻¹s⁻¹), Kd (s⁻¹) and KD (nM) values were determined using Octet Data Analysis High Throughput software (Sartorius) for Biolayer Interferometry.
(§2) To assess cross-species reactivity of the ALPP/ALPPL2 targeting VHH-hFc fusions, BLI was conducted using mouse ALPPL2 (NCBI #NP_031459), rhesus monkey ALPP (NCBI #XP_028687061) and cynomolgus monkey ALPP (NCBI #XP_045223825). […] BLI was conducted as described above.

[2] = molecular target: T2, Cynomolgus monkey ALPP (leucine zipper) (cynomolgus monkey); assay: BLI, antigen immobilised, KD apparent
T2 construct: Whole entry: cysteine-stabilised leucine zipper fusion; also called CynoALPP; NCBI #XP_045223825
T2 chain: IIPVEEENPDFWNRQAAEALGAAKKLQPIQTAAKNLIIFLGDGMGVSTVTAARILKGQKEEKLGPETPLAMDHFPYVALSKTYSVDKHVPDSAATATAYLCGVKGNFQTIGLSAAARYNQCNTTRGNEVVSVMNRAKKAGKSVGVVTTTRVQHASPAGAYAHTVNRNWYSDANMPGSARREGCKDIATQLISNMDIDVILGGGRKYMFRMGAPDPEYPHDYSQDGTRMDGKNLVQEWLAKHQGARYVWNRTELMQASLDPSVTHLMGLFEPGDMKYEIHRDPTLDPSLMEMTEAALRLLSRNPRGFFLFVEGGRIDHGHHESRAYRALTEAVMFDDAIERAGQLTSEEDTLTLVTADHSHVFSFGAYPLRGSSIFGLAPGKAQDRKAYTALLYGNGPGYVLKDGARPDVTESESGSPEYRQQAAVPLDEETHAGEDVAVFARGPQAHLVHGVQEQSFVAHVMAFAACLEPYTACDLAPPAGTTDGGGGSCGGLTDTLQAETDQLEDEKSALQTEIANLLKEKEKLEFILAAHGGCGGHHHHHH
Procedure: as §1, §2

[3] = molecular target: T3, Mouse ALPPL2 (leucine zipper) (mouse); assay: BLI, antigen immobilised
T3 construct: Whole entry: cysteine-stabilised leucine zipper fusion; also called mALPPL2; NCBI #NP_031459
T3 chain: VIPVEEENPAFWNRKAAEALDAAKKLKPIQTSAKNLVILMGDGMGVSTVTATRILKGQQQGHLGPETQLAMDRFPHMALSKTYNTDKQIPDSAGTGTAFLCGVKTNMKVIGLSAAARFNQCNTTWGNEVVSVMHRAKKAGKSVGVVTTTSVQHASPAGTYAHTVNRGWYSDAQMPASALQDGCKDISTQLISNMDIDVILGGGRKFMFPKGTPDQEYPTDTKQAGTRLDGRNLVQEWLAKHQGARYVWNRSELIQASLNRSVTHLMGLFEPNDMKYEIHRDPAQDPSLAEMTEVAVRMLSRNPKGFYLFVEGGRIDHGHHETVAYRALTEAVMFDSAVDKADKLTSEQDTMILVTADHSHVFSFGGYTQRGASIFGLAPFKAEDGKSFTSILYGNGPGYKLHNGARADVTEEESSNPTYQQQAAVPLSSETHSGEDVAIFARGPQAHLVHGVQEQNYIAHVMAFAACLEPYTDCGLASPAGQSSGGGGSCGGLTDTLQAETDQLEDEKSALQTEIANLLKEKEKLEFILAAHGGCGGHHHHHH
Procedure: as §1, §2

[4] = molecular target: T3, Mouse ALPPL2 (leucine zipper); assay: BLI, antigen immobilised, KD apparent
Procedure: as §1, §2

ALPI His homodimer = molecular target: T4, ALPI His homodimer (human, UniProt P09923 20-503); assay: BLI, antigen immobilised; very low response
T4 construct: Whole entry with His tag; used in ELISA and BLI; also called hALPI
T4 sequence: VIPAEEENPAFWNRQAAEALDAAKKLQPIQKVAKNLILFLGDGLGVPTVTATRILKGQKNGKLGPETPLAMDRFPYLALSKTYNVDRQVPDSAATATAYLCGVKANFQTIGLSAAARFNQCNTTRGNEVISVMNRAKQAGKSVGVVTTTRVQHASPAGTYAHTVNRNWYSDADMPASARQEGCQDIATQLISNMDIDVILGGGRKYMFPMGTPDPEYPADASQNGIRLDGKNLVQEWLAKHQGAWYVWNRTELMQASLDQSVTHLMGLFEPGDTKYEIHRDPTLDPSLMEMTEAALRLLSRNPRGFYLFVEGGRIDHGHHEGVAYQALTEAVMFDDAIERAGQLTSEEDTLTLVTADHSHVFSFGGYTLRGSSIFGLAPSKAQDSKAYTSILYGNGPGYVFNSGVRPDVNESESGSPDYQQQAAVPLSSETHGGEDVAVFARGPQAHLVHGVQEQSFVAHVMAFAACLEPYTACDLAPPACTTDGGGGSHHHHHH
Procedure: as §1
BLI data (Table 9) confirms the high affinity binding of VHH-hFc fusion proteins to ALPP and ALPPL2.

Row | Binder | Kd [1] [nM] | koff [1] [s⁻¹] | kon [1] [M⁻¹ s⁻¹] | Kd [2] [nM] | koff [2] [s⁻¹] | kon [2] [M⁻¹ s⁻¹] | binding result [3] | Kd [4] [nM] | koff [4] [s⁻¹] | kon [4] [M⁻¹ s⁻¹] | Kd (ALPI His homodimer) [nM]
1 | B1 | < 0.01 | < 1e-07 | 752000 | 0.23 | 0.00025 | 974000 | no binding | – | – | – | –
2 | B2 | – | < 1e-07 | 544000 | < 0.01 | < 1e-07 | 622000 | – | 2.59 | 0.0042 | 1.62e+06 | –
3 | B3 | – | – | – | < 0.01 | < 1e-07 | 106000 | – | 0.72 | 0.00228 | 3.91e+06 | –
4 | B4 | < 0.01 | < 1e-07 | 228000 | < 0.01 | < 1e-07 | 664000 | – | 0.047 | 1.82e-05 | 392000 | –
5 | B5 | 0.025 | 4.81e-06 | 194000 | – | – | – | no binding | – | – | – | 148
6 | B6 | < 0.01 | < 1e-07 | 126000 | < 0.01 | < 1e-07 | 1.09e+06 | no binding | – | – | – | –
7 | B7 | 0.721 | 0.000481 | 667000 | – | – | – | no binding | – | – | – | –
8 | B8 | < 0.01 | < 1e-07 | 672000 | – | – | – | no binding | – | – | – | –
